Results from article PMC9911399, “Two distinct binding modes provide the RNA-binding protein RbFox with extraordinary sequence specificity”.
Changes are numbered by the printed parent chain; changes in the protein carry UniProt numbers. The list shows a part of the results.

T1: RBFOX1 RRM (Homo sapiens, UniProt Q9NWB1 109-208)
T1 sequence: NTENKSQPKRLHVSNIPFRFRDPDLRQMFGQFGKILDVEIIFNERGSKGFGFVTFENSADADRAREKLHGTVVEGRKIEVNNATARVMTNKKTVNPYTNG

B1: AUUUCUU (DNA:RNA)
RNA: GGGAGACCGGAAUUCAGAUUGUCCAUUUCUUUUAAAUCCCGUCGUAGCCACCA
DNA 1: CAATCTGAATTCCGGTCTCCC
DNA 2: TGGTGGCTACGACGGGATT
B2: UUUGUAU (DNA:RNA)
RNA: B1 RNA with A25U, U28G, C29U, U30A
DNA 1: CAATCTGAATTCCGGTCTCCC
DNA 2: TGGTGGCTACGACGGGATT
B3: CUACCGC (DNA:RNA)
RNA: B1 RNA with A25C, U27A, U28C, U30G, U31C
DNA 1: CAATCTGAATTCCGGTCTCCC
DNA 2: TGGTGGCTACGACGGGATT
B4: AGCAGAG (DNA:RNA)
RNA: B1 RNA with U26G, U27C, U28A, C29G, U30A, U31G
DNA 1: CAATCTGAATTCCGGTCTCCC
DNA 2: TGGTGGCTACGACGGGATT
B5: UCAUUGA (DNA:RNA)
RNA: B1 RNA with A25U, U26C, U27A, C29U, U30G, U31A
DNA 1: CAATCTGAATTCCGGTCTCCC
DNA 2: TGGTGGCTACGACGGGATT
B6: UCUAUAC (DNA:RNA)
RNA: B1 RNA with A25U, U26C, U28A, C29U, U30A, U31C
DNA 1: CAATCTGAATTCCGGTCTCCC
DNA 2: TGGTGGCTACGACGGGATT
B7: UAUCGCC (DNA:RNA)
RNA: B1 RNA with A25U, U26A, U28C, C29G, U30C, U31C
DNA 1: CAATCTGAATTCCGGTCTCCC
DNA 2: TGGTGGCTACGACGGGATT
B8: CGCCUUU (DNA:RNA)
RNA: B1 RNA with A25C, U26G, U27C, U28C, C29U
DNA 1: CAATCTGAATTCCGGTCTCCC
DNA 2: TGGTGGCTACGACGGGATT
B9: GCGUCAU (DNA:RNA)
RNA: B1 RNA with A25G, U26C, U27G, U30A
DNA 1: CAATCTGAATTCCGGTCTCCC
DNA 2: TGGTGGCTACGACGGGATT

Biological target: T1, RBFOX1 RRM
Test: EMSA; HiTS-Eq, 1 nM pool, 10 min; buffer printed only for the single-RNA assays: 10 mM Tris pH 7.5, 150 mM NaCl, 3.4 mM EDTA, 0.001% NP-40, 30 C
Details: tags: His6 N-terminal (pET28a); label: 5' 32P
In short: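 Purified RbFox RRM (wild type or mutant) was equilibrated for 10 min in 50 µL with 1 nM of a 5′-radiolabelled pool of RNA with 7 randomized nucleotides, its flanks annealed to DNA oligonucleotides, across increasing protein concentrations. Free RNA was separated by 8% native PAGE, excised, reverse-transcribed, PCR-barcoded and sequenced on an Illumina HiSeq 2500. Relative association constants came from read-count changes of each variant against the control reaction, normalised to the cognate motif.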

Row | Binder | binding signal
1 | B1 | 0.00893 KA relative to UGCAUGU
2 | B2 | 0.00777 KA relative to UGCAUGU
3 | B3 | 0.00361 KA relative to UGCAUGU
4 | B4 | 0.00729 KA relative to UGCAUGU
5 | B5 | 0.0112 KA relative to UGCAUGU
6 | B6 | 0.00378 KA relative to UGCAUGU
7 | B7 | 0.0118 KA relative to UGCAUGU
8 | B8 | 0.00869 KA relative to UGCAUGU
9 | B9 | 0.00855 KA relative to UGCAUGU
